Experimental data reported in publication PMC6919601, “Identification of Plasmodium dipeptidyl aminopeptidase allosteric inhibitors by high throughput screening” (PLoS ONE, 2019).
Among all 110,000 compounds or so, about 230 (0.21%) showed an effect of 50% or more. The list shows a part of the results.

target: DPAP1 (Plasmodium falciparum, UniProt Q8IIJ9); experiment: primary screen, percent inhibition; read by cleavage of a fluorogenic dipeptide substrate; higher = more effect of the substance; design: species or system P. falciparum D10 trophozoite lysates; single well
Sequence (Q8IIJ9 whole entry, looked up): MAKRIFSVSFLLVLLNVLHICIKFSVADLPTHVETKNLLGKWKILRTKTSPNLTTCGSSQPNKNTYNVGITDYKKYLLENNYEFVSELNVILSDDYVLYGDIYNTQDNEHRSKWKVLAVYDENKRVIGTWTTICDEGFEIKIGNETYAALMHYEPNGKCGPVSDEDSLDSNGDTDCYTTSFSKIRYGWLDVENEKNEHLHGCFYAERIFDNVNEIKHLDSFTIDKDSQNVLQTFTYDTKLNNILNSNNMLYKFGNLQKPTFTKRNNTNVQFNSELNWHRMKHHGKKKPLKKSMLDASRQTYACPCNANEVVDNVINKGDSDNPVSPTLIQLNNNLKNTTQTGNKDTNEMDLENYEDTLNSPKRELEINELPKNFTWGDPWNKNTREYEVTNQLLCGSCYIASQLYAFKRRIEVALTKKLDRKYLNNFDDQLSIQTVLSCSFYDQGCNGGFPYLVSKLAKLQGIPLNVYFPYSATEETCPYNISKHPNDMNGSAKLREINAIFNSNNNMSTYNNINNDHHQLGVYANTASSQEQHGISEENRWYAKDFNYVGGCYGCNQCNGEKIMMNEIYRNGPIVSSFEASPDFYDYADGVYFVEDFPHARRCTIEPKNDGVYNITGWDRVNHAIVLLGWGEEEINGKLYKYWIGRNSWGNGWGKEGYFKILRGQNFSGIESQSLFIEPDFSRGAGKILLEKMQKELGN
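Note: 30 min substrate incubation versus DMSO and 10 µM JCP410 controls.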

Row | SMILES | % Inhibition @ 10 uM [%]
1 | CC(=O)c1ccc(N2C(=O)c3ccc(C(=O)c4ccccc4)cc3C2=O)cc1 | -3.24
2 | COc1cc(OC)cc(C(=O)Nc2ccccn2)c1 | -3.92
3 | CCOC(=O)N1CCN(C(=O)CSc2nnc(Cc3cccn3C)n2CCc2ccccc2)CC1 | -2.19
4 | COc1ccc2ncc(C(=O)c3ccccc3)c(N3CCC(C(N)=O)CC3)c2c1 | -7.3
5 | CCOC(=O)c1c(NC(=O)CSc2c[nH]c3ccccc23)sc2c1CCCC2 | 9.23
6 | CSc1ncc(Cl)c(C(=O)Nc2cccnc2)n1 | -4.64
7 | O=C(Nc1ccc(CN2CCOCC2)cc1)c1cccc(F)c1 | 0.709
8 | COc1ccc(C(=O)N(CCc2ccccc2)Cc2ccccc2)c(OC)n1 | -6.91
9 | CC1CN(C2CCC(c3ccccc3)CC2)CC(C)O1 (stereo not drawn) | 1.57
10 | CCOc1cc(CNC2=NS(=O)(=O)C(c3ccc(C(C)C)cc3)=C2C)cc(OCC)c1OCC | -1.3
11 | COCc1cc(O)n2nc(N)nc2n1 | 3.79
12 | COc1ccc2ccccc2c1CN1CCOCC1 | -6.82
13 | Cc1cc(C)c(C(=O)CSc2nc3cccnc3[nH]2)cc1C | -3.53
14 | CCc1nc2cccnc2n1-c1ccc(CC(=O)O)cc1 | 3.24
15 | CC(C)Cn1c(=O)c2ccccc2n2c(CCC(=O)N3CCN(c4ccccn4)CC3)nnc12 | -0.692
16 | CC1=NN(C2=NS(=O)(=O)c3ccccc32)C(C)(O)C1 (stereo not drawn) | 2.26
17 | COc1ccc(NC(=O)c2cccc(S(=O)(=O)Nc3ccccc3C)c2)cc1 | 1.44
18 | CCN1CCN(C(=O)C2CCCN(S(=O)(=O)N3CCCCCC3)C2)CC1 (stereo not drawn) | 3.96
19 | Cc1nc(NCc2ccco2)c2c3c(sc2n1)CCCC3 | -0.424
20 | CC(C)CC(=O)n1nc(-c2ccco2)nc1NCc1cccs1 | 1.9
21 | COc1cc(S(=O)(=O)N2CCOCC2)c(OC)cc1Cl | 2.05

Row | SMILES | % Inhibition @ 10 uM [%]
22 | COc1cccc(CN2CCN(Cc3ccco3)CC2)c1OC | -7.15
23 | Cc1n[nH]c(C)c1CCCCCOc1ccc(F)cc1 | -6.12
24 | CCOc1ccc(C(=O)C2=C(O)C(=O)N(Cc3cccnc3)C2c2ccc(C(C)C)cc2)c(C)c1 (stereo not drawn) | 4.54
25 | COc1ccc2c(Cl)c(C(=O)N3CCOCC3)sc2c1 | 3.05
26 | CC(C)CS(=O)(=O)C1=NSC2=NC(=O)/C(=C\c3ccc(OCC(=O)O)cc3)C(=N)N21 | -3.62
27 | c1cnc(N2CCN(Cc3cccnc3)CC2)nc1 | -0.969
28 | COc1ccc(C2=NN(CCC(=O)NCc3ccccc3Cl)C(=O)CC2)cc1 | 0.718
29 | COc1cccc(/C=C2\SC(Nc3ccc(Cl)cc3)=NC2=O)c1OC | 0.475
30 | Cc1nn(CC(=O)N2CCC(Cc3ccccc3)CC2)c(=O)c2c1sc1ccccc12 | -5.78
31 | COc1ccc(C2=NNc3nc4c(c(=O)[nH]c(=O)n4C)n3C2)cc1 | -3.69
32 | Cc1ccc(NC(=O)c2ccc3c(c2)OCO3)cc1Cl | 1.84
33 | Cc1ccc(-n2nc3c(N4CCCC(C(=O)NCCC5=CCCCC5)C4)nnc(C)c3c2C)cc1 (stereo not drawn) | 7.55
34 | CCOC(=O)N1CCN(c2c(NCc3ccccc3Cl)c(=O)c2=O)CC1 | 0.277
35 | CC1(C)CC(Nc2nc(Cl)c(C#N)c(Cl)c2Cl)CC(C)(C)N1 | 2.24
36 | CN1C(=O)C(C2c3ccccc3Oc3ccccc32)C(=O)N(C)C1=O | -6.07
37 | CC1(C)CC(=O)C2=C(C1)OC(N)=C(C#N)C2c1ccc(C(C)(C)C)s1 (stereo not drawn) | 5.66
38 | Cc1cc(F)c(F)c(C(=O)N2CCOCC2)c1Cl | -2.97
39 | COc1ccc(C(c2c(O)ccc3ccccc23)N2CCOCC2)cc1 (stereo not drawn) | -0.0217
40 | COc1ccc(C2=N/C(=C\c3cccs3)C(=O)O2)cc1Br | -5.29
41 | Cc1oc(-c2ccccc2)nc1C12CC3CC(CC(C3)C1)C2 | 0.962
42 | Cc1ccc2c(c1)c(Sc1ccccc1)c(CC(=O)NCCO)n2C | -3.04

Row | SMILES | % Inhibition @ 10 uM [%]
43 | CCCOc1ccc(Cc2nn3c(=O)/c(=C\c4ccc(OCC)c(OC)c4)sc3nc2=O)cc1 | 1.23
44 | CCN1CC2=C(OC(N)=C(C#N)C2c2ccc(OC)cc2)/C(=C/c2ccc(OC)cc2)C1 (stereo not drawn) | 4.3
45 | O=C(CCNC(=O)OCc1ccccc1)NC1CCCCCC1 | 1.13
46 | COc1cccc(/C=C2/SC(N)=NC2=O)c1OC | 1.58
47 | O=C(NCc1ccccc1)c1ccc(Cl)c(S(=O)(=O)N2CCCCCC2)c1 | 18.2
48 | O=C(O)C1CC=CC[C@@H]1c1cccc2ccccc12 (stereo partly drawn) | -5.71
49 | Cc1cccc(CN2CCN(C(=O)c3ccccc3F)CC2)c1 | -1.6
50 | O=C(c1ccc(NS(=O)(=O)c2cccc(Cl)c2)cc1)N1CCCCCC1 | -4.56
51 | O=C1C(=O)N(CCn2c3ccccc3c3nc4ccccc4nc32)c2ccccc21 | 3.91
52 | Cc1ccc(-c2cc(C(=O)Nc3cc(C)on3)no2)cc1 | 3.54
53 | O=C(Nc1ccc(F)c(Cl)c1)c1ccccc1NC(=O)C1CC=CCC1C(=O)O (stereo not drawn) | 2.48
54 | COc1ccc(-c2csc3ncn(CC(=O)Nc4ccc(Cl)cc4C)c(=O)c23)cc1OC | -2.09
55 | CC(C)(C)c1ccc(C(=O)NC2=NC(=O)CC(c3ccccc3F)N2)cc1 (stereo not drawn) | 5.1
56 | O=C(N/C(=C\c1cccc(F)c1)C(=O)N1CC2CC(C1)c1cccc(=O)n1C2)c1ccco1 (stereo not drawn) | 3.08
57 | CCn1c(C(=O)NCCCN2CCN(Cc3ccccc3)CC2)cc2sccc21 | -10.5
58 | CCOC(=O)C1=C(C)N=C(SCc2ccc(C(=O)O)cc2)NC1c1ccc(OCC)cc1 (stereo not drawn) | -1.47
59 | O=C(O)c1ccc(Oc2ccc(NC(=O)C3CC3)cc2)cc1C(=O)O | 0.635
60 | O=S(=O)(c1ccccc1)N(CCO)Cc1ccccc1 | -3.25
61 | CC(=O)c1cc(F)c(N2CCN(C(=O)c3ccc(F)cc3)CC2)cc1C | 0.214
62 | COc1ccc(NC(=O)C(Cc2ccccc2)N2C(=O)c3ccccc3C2=O)cc1 (stereo not drawn) | 2.02
63 | COc1cccc(CN2CCCC(C(=O)N3CCCCCC3)C2)c1OC (stereo not drawn) | 2.25
